In the supplement of paper PMC4604168 (melanoma cell lines):
This is one part of the list. Repeats are few or missing, and single values can be far off.

Assays:
Assay in all cases: cell count relative to DMSO control; melanoma cells; higher = more viable cells
Details in all cases: library dose: standard library concentration; 72 h
[1] = test system: SkMel28
[2] = test system: SkMel2
[3] = test system: SkMel30
[4] = test system: SkMel5
[5] = test system: UACC257
[6] = test system: UACC62
[7] = test system: WM115
[8] = test system: WM1716
[9] = test system: WM3526
[10] = test system: WM1745
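Also: cells treated in 1,536-well plates, then fixed and DAPI-stained, with nuclei counted from automated high-throughput microscope images.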

Row | SMILES | cell count [1] [%] | cell count [2] [%] | cell count [3] [%] | cell count [4] [%] | cell count [5] [%] | cell count [6] [%] | cell count [7] [%] | cell count [8] [%] | cell count [9] [%] | cell count [10] [%]
1 | CN(c1ncccc1CNc1nc(Nc2ccc3c(c2)CC(=O)N3)ncc1C(F)(F)F)S(C)(=O)=O + O=C1NC(=O)/C(=C/c2ccc(-c3ccc(F)cc3O)o2)S1 [AS252424] (first compound 0.4 µM, partner dose 5 µM) | 91.5 | 73.7 | 106 | 71 | 82.2 | 77.5 | 85.8 | 94.1 | 97.8 | –
2 | CS(=O)(=O)c1ccc(C(=O)Nc2ccc(Cl)c(-c3ccccn3)c2)c(Cl)c1 [vismodegib] + COc1cc(N2CCC(N3CCN(C)CC3)CC2)ccc1Nc1ncc(Cl)c(Nc2ccccc2S(=O)(=O)C(C)C)n1 [NVP-TAE684] (first compound 5 µM, partner dose 0.4 µM) | 69.6 | 65.2 | 110 | 70.5 | 82.9 | 62.8 | 78.2 | 86.2 | 84.5 | –
3 | CN(c1ncccc1CNc1nc(Nc2ccc3c(c2)CC(=O)N3)ncc1C(F)(F)F)S(C)(=O)=O + c1cc(-c2cnn3cc(-c4ccc(OCCN5CCCCC5)cc4)cnc23)ccn1 [Dorsomorphin] (first compound 0.4 µM, partner dose 2 µM) | 59.8 | 59.6 | 95.7 | 54.3 | 64.1 | 69.8 | 55.9 | 58.1 | 70.8 | –
4 | NC1(c2ccc(-c3nc4ccn5c(=O)[nH]nc5c4cc3-c3ccccc3)cc2)CCC1 + Cc1cc([N+](=O)[O-])ccc1NS(=O)(=O)c1cc(Cl)ccc1Cl [FH535] (first compound 2 µM, partner dose 5 µM) | 44 | 61.8 | 97.2 | 62.4 | 56.8 | 99.4 | 59.4 | 76.8 | 79.5 | –
5 | CS(=O)(=O)c1ccc(C(=O)Nc2ccc(Cl)c(-c3ccccn3)c2)c(Cl)c1 [vismodegib] + COC(=O)c1sccc1S(=O)(=O)Nc1ccc(Nc2ccccc2)cc1OC [GSK0660] (first compound 5 µM, partner dose 5 µM) | 112 | 117 | 121 | 85.1 | 103 | 78.1 | 110 | 110 | 104 | –
6 | NC1(c2ccc(-c3nc4ccn5c(=O)[nH]nc5c4cc3-c3ccccc3)cc2)CCC1 + CCCCCCCCCCCC1=C(O)C(=O)C=C(O)C1=O [Embelin] (first compound 2 µM, partner dose 6 µM) | 47.6 | 60.4 | 91.4 | 78.8 | 82.1 | 81.5 | 77 | 39.4 | 55.6 | –
7 | CCCS(=O)(=O)Nc1ccc(F)c(C(=O)c2c[nH]c3ncc(Cl)cc23)c1F + CCN(CC)CCCCNc1ncc2cc(-c3cc(OC)cc(OC)c3)c(NC(=O)NC(C)(C)C)nc2n1 [PD173074] (first compound 0.4 µM, partner dose 0.5 µM) | 56.5 | 110 | 104 | 92.2 | 106 | 68.5 | 104 | 121 | 70.7 | –
8 | CS(=O)(=O)c1ccc(C(=O)Nc2ccc(Cl)c(-c3ccccn3)c2)c(Cl)c1 [vismodegib] + CCCCCCCCCCCC1=C(O)C(=O)C=C(O)C1=O [Embelin] (first compound 5 µM, partner dose 6 µM) | 96.1 | 94.8 | 118 | 89.6 | 97.7 | 95.7 | 112 | 76.5 | 94.1 | –
9 | C=C(c1ccc(C(=O)O)cc1)c1cc2c(cc1C)C(C)(C)CCC2(C)C [Bexarotene] + Oc1nc(-c2ccc(C(F)(F)F)cc2)nc2c1CSCC2 [XAV939] (first compound 10 µM, partner dose 10 µM) | 83.4 | 106 | 92 | 77.8 | 74 | 87.3 | 94.2 | 47.9 | 117 | –
10 | CCCS(=O)(=O)Nc1ccc(F)c(C(=O)c2c[nH]c3ncc(Cl)cc23)c1F + Cc1cc([N+](=O)[O-])ccc1NS(=O)(=O)c1cc(Cl)ccc1Cl [FH535] (first compound 0.4 µM, partner dose 5 µM) | 38.8 | 104 | 115 | 65.5 | 64.4 | 51.3 | 62.3 | 70.3 | 65.8 | –
11 | NC1(c2ccc(-c3nc4ccn5c(=O)[nH]nc5c4cc3-c3ccccc3)cc2)CCC1 + COc1cc2ncnc(Nc3ccc(Oc4ccccc4)cc3)c2cc1OC [SrcI1] (first compound 2 µM, partner dose 10 µM) | 42.8 | 46.5 | 84.1 | 39.2 | 80.7 | 35.2 | 31.9 | 41.5 | 47.8 | –
12 | CCCS(=O)(=O)Nc1ccc(F)c(C(=O)c2c[nH]c3ncc(Cl)cc23)c1F + Oc1nc(-c2ccc(C(F)(F)F)cc2)nc2c1CSCC2 [XAV939] (first compound 0.4 µM, partner dose 10 µM) | 47.4 | 80.6 | 110 | 67.2 | 81.1 | 61.7 | 81.1 | 57.5 | 66.3 | –
13 | CN(c1ncccc1CNc1nc(Nc2ccc3c(c2)CC(=O)N3)ncc1C(F)(F)F)S(C)(=O)=O + O=S(=O)(c1ccccc1)N(CC(F)(F)F)c1ccc(C(O)(C(F)(F)F)C(F)(F)F)cc1 [T0901317] (first compound 0.4 µM, partner dose 7 µM) | 61.9 | 65 | 84.9 | 43.8 | 70.8 | 51.6 | 84.1 | 70.6 | 82.7 | –
14 | NC1(c2ccc(-c3nc4ccn5c(=O)[nH]nc5c4cc3-c3ccccc3)cc2)CCC1 + O=C(O)C(=O)Nc1sc2c(c1C(=O)O)CCNC2 [TCS401] (first compound 2 µM, partner dose 8.33333 µM) | 63.4 | 71.3 | 105 | 66.7 | 82.8 | 89.8 | 74 | 57.2 | 76 | –
15 | CS(=O)(=O)c1ccc(C(=O)Nc2ccc(Cl)c(-c3ccccn3)c2)c(Cl)c1 [vismodegib] + Cc1cc([N+](=O)[O-])ccc1NS(=O)(=O)c1cc(Cl)ccc1Cl [FH535] (first compound 5 µM, partner dose 5 µM) | 60.2 | 91.1 | 83.3 | 80 | 53.3 | 71.3 | 89.8 | 65.3 | 74.5 | –
16 | NC1(c2ccc(-c3nc4ccn5c(=O)[nH]nc5c4cc3-c3ccccc3)cc2)CCC1 + Oc1cc(-c2nc(-c3ccccc3)[nH]c2-c2ccncc2)ccc1Cl [L779450] (first compound 2 µM, partner dose 1 µM) | 33.9 | 4.26 | 91.7 | 58.1 | 98 | 67.9 | 27.7 | 63 | 49.8 | –
17 | NC1(c2ccc(-c3nc4ccn5c(=O)[nH]nc5c4cc3-c3ccccc3)cc2)CCC1 + COc1ccc(-c2ccc3c(N4CCOCC4)nc(N4C[C@@H](C)O[C@@H](C)C4)nc3n2)cc1CO [KU0063794] (first compound 2 µM, partner dose 0.1 µM) | 48.9 | 63.7 | 85.2 | 54 | 88 | 70 | 53.2 | 75.3 | 62.1 | –
18 | C=C(c1ccc(C(=O)O)cc1)c1cc2c(cc1C)C(C)(C)CCC2(C)C [Bexarotene] + O=C(Nc1ccccc1)c1cc([N+](=O)[O-])ccc1Cl [GW9662] (first compound 10 µM, partner dose 10 µM) | 43.9 | 68.1 | 121 | 73.1 | 70.2 | 75.2 | 92.1 | 106 | 85.7 | –
19 | NC1(c2ccc(-c3nc4ccn5c(=O)[nH]nc5c4cc3-c3ccccc3)cc2)CCC1 + COC(=O)c1sccc1S(=O)(=O)Nc1ccc(Nc2ccccc2)cc1OC [GSK0660] (first compound 2 µM, partner dose 5 µM) | 61.6 | 78 | 90.2 | 71.8 | 87.1 | 71.4 | 59.7 | 77.8 | 71.2 | –
20 | CN(c1ncccc1CNc1nc(Nc2ccc3c(c2)CC(=O)N3)ncc1C(F)(F)F)S(C)(=O)=O + Cn1cc(/C=C2\C(=O)Nc3cccnc32)c2ccccc21 [GW441756] (first compound 0.4 µM, partner dose 2 µM) | 47.7 | 71.1 | 80.5 | 47.3 | 71.2 | 69.4 | 75.7 | 60.1 | 78.3 | –
21 | C=C(c1ccc(C(=O)O)cc1)c1cc2c(cc1C)C(C)(C)CCC2(C)C [Bexarotene] + Cn1cc(/C=C2\C(=O)Nc3cccnc32)c2ccccc21 [GW441756] (first compound 10 µM, partner dose 2 µM) | 61.6 | 79 | 108 | 66.3 | 73.6 | 62.2 | 114 | 83.6 | 71.5 | –
22 | CS(=O)(=O)c1ccc(C(=O)Nc2ccc(Cl)c(-c3ccccn3)c2)c(Cl)c1 [vismodegib] + COc1ccc2c(c1)CCC1C2CCC2(C)C(NCCCCCCN3C(=O)C=CC3=O)CCC12 [U73122] (first compound 5 µM, partner dose 2 µM) | 120 | 120 | 82.6 | 95.8 | 97 | 56.3 | 77.3 | 95.8 | 109 | –
23 | CN(c1ncccc1CNc1nc(Nc2ccc3c(c2)CC(=O)N3)ncc1C(F)(F)F)S(C)(=O)=O + CCCCCCCCCCCC1=C(O)C(=O)C=C(O)C1=O [Embelin] (first compound 0.4 µM, partner dose 6 µM) | 77.6 | 65.6 | 109 | 87.9 | 74.4 | 79.3 | 58.4 | 70.7 | 90 | –
24 | C=C(c1ccc(C(=O)O)cc1)c1cc2c(cc1C)C(C)(C)CCC2(C)C [Bexarotene] + Cc1cc([N+](=O)[O-])ccc1NS(=O)(=O)c1cc(Cl)ccc1Cl [FH535] (first compound 10 µM, partner dose 5 µM) | 33.8 | 73.6 | 103 | 73.5 | 69.4 | 90.4 | 84.6 | 76.3 | 75.3 | –
25 | CCCS(=O)(=O)Nc1ccc(F)c(C(=O)c2c[nH]c3ncc(Cl)cc23)c1F + O=C(Nc1ccccc1)c1cc([N+](=O)[O-])ccc1Cl [GW9662] (first compound 0.4 µM, partner dose 10 µM) | 48.6 | 87.3 | 81.4 | 79.5 | 93.5 | 47.3 | 58.6 | 81.5 | 61.3 | –
26 | CS(=O)(=O)c1ccc(C(=O)Nc2ccc(Cl)c(-c3ccccn3)c2)c(Cl)c1 [vismodegib] + O=C(O)C(=O)Nc1sc2c(c1C(=O)O)CCNC2 [TCS401] (first compound 5 µM, partner dose 8.33333 µM) | 103 | 98.5 | 138 | 63.5 | 92.2 | 98.2 | 121 | 82.6 | 97.8 | –
27 | C=C(c1ccc(C(=O)O)cc1)c1cc2c(cc1C)C(C)(C)CCC2(C)C [Bexarotene] + COC(=O)c1sccc1S(=O)(=O)Nc1ccc(Nc2ccccc2)cc1OC [GSK0660] (first compound 10 µM, partner dose 5 µM) | 74.7 | 88.4 | 95.4 | 90.8 | 74.8 | 78 | 97.4 | 79.6 | 81.5 | –
28 | CS(=O)(=O)c1ccc(C(=O)Nc2ccc(Cl)c(-c3ccccn3)c2)c(Cl)c1 [vismodegib] + COc1cc2ncnc(Nc3ccc(Oc4ccccc4)cc3)c2cc1OC [SrcI1] (first compound 5 µM, partner dose 10 µM) | 66.7 | 81.8 | 92.2 | 68.8 | 88.8 | 79.7 | 92.3 | 92.8 | 82.1 | –
29 | CCCS(=O)(=O)Nc1ccc(F)c(C(=O)c2c[nH]c3ncc(Cl)cc23)c1F + COc1cc2c(Oc3ccc4[nH]c(C)cc4c3F)ncnc2cc1OCCCN1CCCC1 [cediranib] (first compound 0.4 µM, partner dose 2 µM) | 65.9 | – | 90.1 | 73.9 | 89.8 | 49.1 | 62 | 65.3 | 61 | 55.2
